Results: the RNAGym collection of RNA variant scans (doi:10.1073/pnas.2313332121)
Variants at the background level are over-represented here.

B1: TPR 5TU (parent)
chain: GGAUCUUCUCGAUCUAACAAAAAAGACAAAUCUGCCACAAAGCUUGAGAGCAUCUUCGGAUGCAGAGGCGGCAGCCUUCGGUGGCGCGAUAGCGCCAACGUUCUCAACUAUGACACGCAAAACGCGUGCUCCGUUGAAUGGAGUUUAUCAUG

Variants of: B1
Assay: polymerase ribozyme fitness, log enrichment relative to wild type (log ratio); higher = more active; in vitro selection for triplet polymerase activity
How it was run: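 The heterodimeric triplet polymerase ribozyme's subunits were each mutagenized into PCR-built libraries and transcribed. Every library was selected once, in triplicate, by annealing with a biotinylated primer, the partner subunit and triplets, incubating frozen at −7 °C, gel-excising extended constructs, capturing on streptavidin beads and running RT-PCR. Input and output libraries were Illumina-sequenced, with genotypes kept only at ≥10 input reads and ≥1 read per output. Fitness, from inverse-variance-weighted replicate averages, is the base-2 logarithm of genotype enrichment over wild-type enrichment.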

Variant	polymerase ribozyme fitness (log ratio)
A3C A28U C32U C36A C54U A137C	≤ -4.2
C5G U53A A66U G83A	≤ -4.2
U4G C5A U31A C36G C63G C69G G133A	≤ -4.2
A3U U13G G140A C149U	≤ -4.2
U4G C8A A16G C36U C57A	≤ -4.2
C5U A23U A41C U45G G59A G80A G94C G141U	≤ -4.2
U4G U15C A30U C35U G42A G84U C85A U101A G117A	≤ -4.2
C5G A19U U33G A37C A39U A52C G83C	≤ -4.2
A3C A21U A28G C38G C96A	≤ -4.2
A3C C54A G94U	≤ -4.2
U4C G48C U55A U56A U78A C85A G141C	≤ -4.2
C5G A28C A47C C85U C129A	≤ -4.2
A3C C8G C14G A40G A66C G74U C75A U82A C93U G141C	≤ -4.2
C5G G42A G88U U101G G124U U148A U151C	≤ -4.2
A3U C18G A37C C75G G88A G128U	≤ -4.2
C5G C8G A30G G42U G48C A49G U78G G80A A89G C123G U144A	≤ -4.2
A3U C69G C85U C93A U104G G141C	≤ -4.2
U4G U33G G68C C95A A107G G136A	≤ -4.2
U4C A24C A47G G50C C63G U109A A147C	≤ -4.2
C5A A22U A23C A30C G92A	≤ -4.2
A3G C75G G92U U101G	≤ -4.2

Variant	polymerase ribozyme fitness (log ratio)
C5U C36A U82C C93U U135G	≤ -4.2
C5G C27G C38A C57A G92U U102C G112C G136U U146C	≤ -4.2
A3U C35A G74A C95G A121U	≤ -4.2
A3U C5G A30G U45A U78C G80C A89C G94U	≤ -4.2
A3C G62A U78A G84A C149G	≤ -4.2
A3G C14G A39G U61A G67C C85G C96U C103U A110U	≤ -4.2
C5G G50C G70A C96A C105G C114G C125A	≤ -4.2
C5U A37U C75G G92C A107G C114U G128C C131A C149U	≤ -4.2
U4G U6G U44A C54G U134C	≤ -4.2
U4C G46A C76G C131U	≤ -4.2
C5A A20G A49C C85U G88C A115G A120G A150G	≤ -4.2
A3U A23G A41C C76G C85U	≤ -4.2
C5G C14G A21U G62C U77G C95U	≤ -4.2
A3U C27U A52U G70A C87G A97U	≤ -4.2
C5U C54A U61C G65A G88U C95G C103G A115C A119C U135G U144G	≤ -4.2
C5U A37U U55G C72G A89G U135G U145C	≤ -4.2
U4C G59U C93G U104G C108A G143C	≤ -4.2
C5G G25C G83C A97U U135C G143A	≤ -4.2
C5A A24U C85A A98G C116A G128C A137C U148C	≤ -4.2
A3U U55A G74C C85U	≤ -4.2
C5A C51U U53G C57U G59C G94U A97G C99A	≤ -4.2

Variant	polymerase ribozyme fitness (log ratio)
U4A A19G U130G G133A	≤ -4.2
U4A A30G C75G C95U A120U A121C	≤ -4.2
U4A C43U G58C C95G A113G C114G C116G	≤ -4.2
U4A A19U C27G C32G G62U U139C	≤ -4.2
A3U U7G A24C C35A C36U C125G	≤ -4.2
U4C C8G C14G G59U C85G A113U C125G	≤ -4.2
C5G C8A C10U C27G G48C C93A U134A	≤ -4.2
A3C C18G A47C A73G G83C G133A	≤ -4.2
C5G G136U U139A A142C	≤ -4.2
U4A A30U G70A G80A G92A U101C C118A A138C	≤ -4.2
A3U A29U A47C G71C	≤ -4.2
A3C C5G U45G G50C C108A A120U	≤ -4.2
A3C A52G G59U G68C C85G A120G G128A C132U U145G	≤ -4.2
C5A G11C C14G U33A C43G C87G G88A G92C C114G G140C	≤ -4.2
A3U A40G A49U U53C G67U C72U G80A C85U U102A	≤ -4.2
U4C C32G G48U G86A U90G	≤ -4.2
U4A C57U C85G A97C U151G	≤ -4.2
C5G U33G C51A C87U A107U C123A U135C G143U	≤ -4.2
C5U A24U A73C G84C A89C A91C U111G A142C C149U	≤ -4.2
A3U A28U A40G U77C C93U	≤ -4.2
C5G A41U G68A A97G A98U U145C	≤ -4.2

Variant	polymerase ribozyme fitness (log ratio)
C5G A19U U56C A137U U139A G140U A142U	≤ -4.2
A3C A30U C75G G86U C116G G117A C129A	≤ -4.2
U4A U45A C87A A106U A115U C123U G141C	≤ -4.2
C5A A30U C85G	≤ -4.2
A3G A22C A37U A60U C85A G94A	≤ -4.2
C5U A26U U56A G59A C103G A142C U148C	≤ -4.2
C5A A47C G59C C93G	≤ -4.2
C5A C8U A17G A49U U56A C63U G71C C87A A97G G140A	≤ -4.2
U4A U15A A22C C54A A66G C99G C116U	≤ -4.2
C5A A29C C38U C87A A91G	≤ -4.2
C5A C54A A119C A122G G140U	≤ -4.2
A3U U56A C57G G68A A97U U144A	≤ -4.2
U4A A41G A66C G67A A137U G140U	≤ -4.2
C5A A26G G59U A73C C87U C95G	≤ -4.2
C5A A28C	≤ -4.2
C5G U31A U55G C57U C69A U134G A150G	≤ -4.2
U4G A12C A26U C43A U45G G48A G81A C103G G143A	≤ -4.2
U4C A30U C32U C43U G71A C85U C123A	≤ -4.2
U4A A16G G42A G94U	≤ -4.2
C5A C8U A16U C76A G92C U139A	≤ -4.2
